The antibiotic and cytotoxicity screens of Wong et al. (2023)
This is one part of the list.

System: S. aureus RN4220
Test: growth inhibition call (relative growth <= 0.2)
Conditions: 50 µM

Growth inhibition call, inactive:
O=c1cc(-c2ccc(O)cc2)oc2cc(O)cc(O)c12
OC[C@@H]1COCCN1Cc1ccccc1
Cc1cc(C(=O)Nc2cccc3c2O[C@H](CN(C)S(=O)(=O)c2cccs2)[C@H](C)CN([C@@H](C)CO)C3=O)n(C)n1
CN(C)c1nc(N)nc(CSc2nnnn2C)n1
NCC[C@H]1CC[C@H](NC(=O)C2CC2)[C@@H](CO)O1
COc1ccc(NC(=O)N(C)C[C@H]2Oc3c(NC(=O)c4cnccn4)cccc3C(=O)N([C@@H](C)CO)C[C@@H]2C)cc1
COc1ccc(S(=O)(=O)Nc2ccc3c(c2)C(=O)N([C@@H](C)CO)C[C@@H](C)[C@@H](CN(C)C(=O)Nc2c(C)noc2C)OCCCC[C@H](C)O3)cc1
C[C@H]1CN([C@@H](C)CO)C(=O)CCCn2cc(nn2)CO[C@H]1CN(C)S(=O)(=O)c1ccc(Cl)cc1
COc1ccc(S(=O)(=O)Nc2ccc3c(c2)C(=O)N([C@@H](C)CO)C[C@@H](C)[C@@H](CN(C)C(=O)CCC(F)(F)F)OCCCC[C@H](C)O3)cc1
O=C(N[C@H]1CC[C@H](CC(=O)N2CCOCC2)O[C@@H]1CO)c1ccccn1
Cc1noc(C)c1NC(=O)N(C)C[C@@H]1Oc2ncc(C#CCN(C)C)cc2C(=O)N([C@@H](C)CO)C[C@@H]1C
CC(C)NC(=O)Nc1ccc2c(c1)C(=O)N([C@H](C)CO[Si](C)(C)C(C)(C)C)C[C@@H](C)[C@H](CN(C)S(=O)(=O)c1ccc(Cl)cc1)O2
COc1ccc(NC(=O)N(C)C[C@H]2OCCCC[C@@H](C)Oc3ccc(NC(=O)c4ccncc4)cc3C(=O)N([C@H](C)CO)C[C@@H]2C)cc1
CO[C@@H]1CN(C)C(=O)c2ccc(NC(=O)CC(F)(F)F)cc2OC[C@H](C)N(C(=O)C2CCOCC2)C[C@H]1C
COc1ccc(S(=O)(=O)N(C)C[C@@H]2Oc3c(NC(=O)c4cc(C)nn4C)cccc3C(=O)N([C@H](C)CO)C[C@@H]2C)cc1
C[C@@H]1CN([C@H](C)CO)C(=O)c2cc(NS(=O)(=O)c3ccc(Cl)cc3)ccc2O[C@@H](C)CCCCO[C@@H]1CN(C)S(=O)(=O)c1ccc(F)cc1
COc1ccc(S(=O)(=O)N(C)C[C@@H]2Oc3ccc(NC(=O)CCC(F)(F)F)cc3CC(=O)N([C@H](C)CO)C[C@@H]2C)cc1
COc1ccc(S(=O)(=O)N(C)C[C@@H]2OCCCC[C@H](C)Oc3ccc(NC(=O)Nc4c(C)noc4C)cc3C(=O)N([C@@H](C)CO)C[C@@H]2C)cc1
C[C@@H]1CN([C@H](C)CO)C(=O)c2cc(NC(=O)NC3CCCCC3)ccc2O[C@@H](C)CCCCO[C@H]1CN(C)C(=O)Nc1ccc(F)cc1
C[C@@H]1CN([C@@H](C)CO)C(=O)c2cc(NC(=O)NC3CCCCC3)ccc2O[C@@H](C)CCCCO[C@@H]1CN(C)S(=O)(=O)c1ccc(F)cc1
COc1ccc(S(=O)(=O)N2C[C@H](O)COC[C@H]3O[C@@H](CC(=O)NCCCN4CCOCC4)CC[C@@H]32)cc1
Nn1c([C@@H](O)c2ccccc2)n[nH]c1=S
Cn1nc(C#N)c2c1CN(S(C)(=O)=O)CCC2
C[C@@H]1CN([C@H](C)CO)C(=O)Cc2cc(NC(=O)Nc3cccc4ccccc34)ccc2O[C@@H]1CN(C)C(=O)Nc1ccccc1
COc1ccc(CN(C)C[C@H]2OCCCC[C@H](C)Oc3ccc(NC(=O)Nc4ccc(OC)cc4)cc3C(=O)N([C@@H](C)CO)C[C@@H]2C)cc1
COc1ccc(NC(=O)N(C)C[C@@H]2OCCCC[C@@H](C)Oc3ccc(NS(=O)(=O)c4ccccc4)cc3C(=O)N([C@@H](C)CO)C[C@@H]2C)cc1
Cc1nccn1-c1cccc(CN)c1
Cc1cc(C(=O)Nc2cccc3c2O[C@@H](CN(C)C(=O)Nc2ccccc2)[C@H](C)CN([C@@H](C)CO)C3=O)n(C)n1
COc1ccc(NC(=O)N(C)C[C@@H]2Oc3c(NC(=O)c4cnccn4)cccc3C(=O)N([C@@H](C)CO)C[C@H]2C)cc1
COc1ccc(CN(C)C[C@H]2OCCCC[C@@H](C)Oc3ccc(NS(=O)(=O)c4ccc(F)cc4)cc3C(=O)N([C@@H](C)CO)C[C@H]2C)cc1
Cc1noc(C)c1S(=O)(=O)Nc1ccc2c(c1)C(=O)N([C@@H](C)CO)C[C@H](C)[C@H](CN(C)Cc1ccc(C(F)(F)F)cc1)OCCCC[C@H](C)O2
C[C@H]1CN([C@@H](C)CO)C(=O)c2cc(NC(=O)CCC(F)(F)F)ccc2O[C@H]1CN(C)Cc1ccc(-c2ccccc2)cc1
CC(C)CC#Cc1cnc2c(c1)C(=O)N([C@@H](C)CO)C[C@H](C)[C@@H](CN(C)S(=O)(=O)c1ccccc1)O2
C[C@@H]1CCCCO[C@H](CN(C)Cc2ccc(C(=O)O)cc2)[C@H](C)CN([C@H](C)CO)C(=O)c2cc(NS(=O)(=O)c3ccc(Cl)cc3)ccc2O1
C[C@H](CO)N1C[C@H](C)[C@H](CN(C)Cc2ccc(C(=O)Nc3ccccc3N)cc2)Oc2c(NC(=O)Nc3ccc(C(F)(F)F)cc3)cccc2C1=O
O=C(O)c1c(O)c2c([nH]c1=O)CCCC2
CC(C)NC(=O)N(C)C[C@@H]1Oc2c(NC(=O)NC3CCCCC3)cccc2C(=O)N([C@H](C)CO)C[C@@H]1C
Cn1cnc(S(=O)(=O)N[C@@H]2C=C[C@@H](CC(=O)N3CCN(c4ccccc4)CC3)O[C@H]2CO)c1
COc1ccc(NC(=O)N(C)C[C@@H]2OCCCC[C@H](C)Oc3ccc(NC(=O)Nc4c(C)noc4C)cc3C(=O)N([C@@H](C)CO)C[C@@H]2C)cc1
